{
  "source": "PubChem BioAssay AID1030",
  "about": "(National Center for Advancing Translational Sciences (NCATS), 2008)",
  "note": "Out of some 220,000 compounds screened, about 16,000 (7.3%) were called active. The shares of active, inactive and inconclusive entries below differ from those in the screen. Calls come from the whole dose curve; as a rule, active = well fitted inhibition curve with a large enough effect (not every such curve was filed as active); inconclusive = small, poorly fitted or top-dose-only effect, or another doubt; inactive = no such curve, though single readings can be large or run the other way. Potencies of inconclusive entries are left out as doubtful fits. Potency is the fitted concentration of half-maximal effect; tags give direction and shape of the fitted curve.",
  "data": [
    {"biological_target": "Aldehyde dehydrogenase 1A1 (Homo sapiens) (UniProt P00352)", "sequence (P00352 whole entry, looked up)": "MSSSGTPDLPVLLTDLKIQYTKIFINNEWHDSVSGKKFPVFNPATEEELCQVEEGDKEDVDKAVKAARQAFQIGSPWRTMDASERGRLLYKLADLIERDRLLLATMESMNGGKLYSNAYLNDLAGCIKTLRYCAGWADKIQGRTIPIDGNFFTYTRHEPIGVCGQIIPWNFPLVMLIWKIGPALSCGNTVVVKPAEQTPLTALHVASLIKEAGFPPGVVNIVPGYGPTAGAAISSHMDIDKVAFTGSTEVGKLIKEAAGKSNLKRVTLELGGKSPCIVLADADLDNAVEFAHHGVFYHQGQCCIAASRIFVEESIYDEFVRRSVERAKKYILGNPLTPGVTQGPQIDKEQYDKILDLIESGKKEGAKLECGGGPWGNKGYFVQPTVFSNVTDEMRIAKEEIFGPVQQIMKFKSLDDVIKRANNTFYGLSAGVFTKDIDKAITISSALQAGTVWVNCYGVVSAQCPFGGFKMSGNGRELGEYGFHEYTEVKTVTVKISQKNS", "experiment": "qHTS Assay for Inhibitors of Aldehyde Dehydrogenase 1 (ALDH1A1);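 for activity, negative = inhibition: plate controls were no enzyme wells and a reference inhibitor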", "settings": "Purified ALDH1A1, NADH fluorescence, propionaldehyde substrate; series mostly up to 75.3 µM", "values": [
      {"compound": "O=C(N/C=N/OCc1cccc(C(F)(F)F)c1)N1OC[C@@H]2COc3ccc4ccccc4c3[C@@H]21", "Potency": "inactive"},
      {"compound": "O=C(CCc1nc2ccccc2[nH]c1=O)N/N=C/c1ccccc1", "Potency": "inconclusive [inhibitor, single point]"},
      {"compound": "CCN1CCN(CCNC(=O)Nc2ccc([N+](=O)[O-])cc2)CC1", "Potency": "inconclusive [inhibitor, single point]"},
      {"compound": "COc1ccc2c(c1)C(=O)[C@H](OC(=O)N[C@H](C)C1CCCCC1)[C@@H](c1ccc(OC)c(Br)c1)O2", "Potency": "inactive"},
      {"compound": "O=C(OCCCc1ccncc1)c1ccc(S(=O)(=O)N2CCOCC2)cc1", "Potency": "inconclusive [inhibitor, single point]"},
      {"compound": "Cc1c(C(=O)OCC2CCCO2)[nH]c2c1C(=O)CC(c1ccco1)C2", "note": "(stereo not given)", "Potency": "active: 7.08 µM"},
      {"compound": "Cc1c(C(=O)Nc2ccc(Cl)cc2)c2ccccn2c1CCc1ccncc1", "Potency": "inconclusive [inhibitor, partial curve]"},
      {"compound": "N#C/C(=N/Nc1ccc([N+](=O)[O-])cc1)C(=N)N1CCCCC1", "Potency": "inconclusive [inhibitor, partial curve]"},
      {"compound": "c1ccc(-c2cc3c(-n4cccc4)ncnc3o2)cc1", "Potency": "inconclusive [inhibitor, single point]"},
      {"compound": "S=C([S-])NCCNC(=S)[S-].[Zn+2]", "Potency": "active: 11.2 µM"},
      {"compound": "O=C(N/N=C/c1cc2c(cc1Br)OCO2)C1COc2ccccc2O1", "note": "(stereo not given)", "Potency": "active: 25.1 µM"},
      {"compound": "N=c1cc(C2(O)CCCCC2)n2c(nc3ccccc32)s1", "Potency": "inactive"},
      {"compound": "O=C1CCC(=O)N1CNc1cccnc1", "Potency": "inactive"},
      {"compound": "CCN(CC)S(=O)(=O)c1ccc(C(=O)NCC(c2ccc(OC)cc2)N2CCOCC2)cc1", "note": "(stereo not given)", "Potency": "active: 0.708 µM"},
      {"compound": "CC(=O)Nc1ccc(NC(=O)C2CC(=O)N(Cc3ccccc3)C2)cc1", "note": "(stereo not given)", "Potency": "active: 3.55 µM"},
      {"compound": "CCOc1cccc(N2C(=O)CC(N3CCN(c4ccc(S(=O)(=O)CC)cc4)CC3)C2=O)c1", "note": "(stereo not given)", "Potency": "inconclusive [inhibitor, single point]"},
      {"compound": "O=C1ON=C(c2cccc([N+](=O)[O-])c2)/C1=C/c1ccc(O)cc1", "Potency": "active: 10 µM"},
      {"compound": "CCCCOC(=O)c1ccc(O)cc1", "Potency": "inactive"},
      {"compound": "CCn1c2ccccc2c2cc(NC(=O)CNCC3CCCO3)ccc21", "note": "(stereo not given)", "Potency": "active: 31.6 µM"},
      {"compound": "COc1cc([N+](=O)[O-])ccc1NC(=O)CCN1C(=O)C2C3CCC(C3)C2C1=O", "note": "(stereo not given)", "Potency": "inconclusive [inhibitor, partial curve]"},
      {"compound": "Cc1ccc(C(=O)CC2C(=O)N(c3ccccc3)C(=S)N2c2ccccc2)cc1", "note": "(stereo not given)", "Potency": "inconclusive [inhibitor, single point]"},
      {"compound": "COC(=O)c1cc(OC)nc2c1c(=O)n(C)c(=O)n2C", "Potency": "inconclusive [inhibitor, partial curve]"},
      {"compound": "O=C(O)c1cccc(Nc2cc(Cl)c3nonc3c2[N+](=O)[O-])c1", "Potency": "inconclusive [inhibitor, single point]"},
      {"compound": "O=[N+]([O-])c1ccc2c(c1)S(=O)c1ccccc1-2", "note": "(stereo not given)", "activity, negative = inhibition": "inactive: 6.96% [at 13.5 µM]"},
      {"compound": "O=c1[nH]c(C2CCCN(S(=O)(=O)c3ccccc3)C2)nc2c1nnn2Cc1ccccc1F", "note": "(stereo not given)", "Potency": "inconclusive [inhibitor, partial curve]"},
      {"compound": "O=S(=O)(c1ccc(-c2csc(Nc3ccc(Br)cc3)n2)cc1)N1CCCC1", "Potency": "inconclusive [inhibitor, partial curve]"},
      {"compound": "COc1cc2c(cc1NC(=O)Nc1ccc(F)cc1)oc1ccccc12", "Potency": "inactive"},
      {"compound": "CC(Oc1ccc2ccc(=O)oc2c1)C(=O)c1ccccc1", "note": "(stereo not given)", "Potency": "inactive"},
      {"compound": "COc1ccc(-c2noc(CCCC(=O)NCCc3ccccc3)n2)cc1OC", "Potency": "inactive"},
      {"compound": "COC(=O)C1CCN(c2cc(Cl)nc(N)n2)CC1", "Potency": "inactive"},
      {"compound": "Cc1c(C(=O)N2CCCC2)sc(NC(=O)c2cccc(Cl)c2)c1C#N", "Potency": "inconclusive [inhibitor, single point]"},
      {"compound": "COc1ccccc1CNc1cc(-c2cccc(NS(C)(=O)=O)c2)ncn1", "Potency": "inactive"},
      {"compound": "CC(=O)c1cccc(NC(=O)N2C3CCC2CC(NC(=O)C2CC2)C3)c1", "note": "(stereo not given)", "Potency": "inactive"},
      {"compound": "CCN(C(=O)COC(=O)c1cncc(Br)c1)C1CCS(=O)(=O)C1", "note": "(stereo not given)", "Potency": "inactive"},
      {"compound": "COc1ccc(S(=O)(=O)NC(Cc2cnc[nH]2)C(=O)O)cc1", "note": "(stereo not given)", "Potency": "inactive"},
      {"compound": "CCCc1nc2c(C)cc(-c3nc4ccccc4n3C)cc2n1Cc1ccc(-c2ccccc2C(=O)O)cc1", "Potency": "inconclusive [inhibitor, single point]"},
      {"compound": "CCCCN=C1NN=C(c2ccc3c(c2)OCCO3)CS1", "Potency": "active: 10 µM"},
      {"compound": "CCCn1c(SCC(=O)C(C)(C)C)nc2ccccc21", "Potency": "inconclusive [inhibitor, single point]"},
      {"compound": "CO/N=C(/C)CCC(=O)OC[C@@H]1O[C@H](C#Cc2ccccc2)C=C[C@@H]1Oc1ccc(C)cc1", "activity, negative = inhibition": "inactive: 1.17% [at 13.5 µM]"},
      {"compound": "CN(C)c1ccc(NC(=O)CN2CCN(CC(=O)Nc3ccc(F)cc3)CC2)cc1", "Potency": "inconclusive [inhibitor, single point]"},
      {"compound": "CCOC(=O)C(=CNc1ccc2c(c1)nnn2-c1ccc(Cl)cc1)C(=O)OCC", "Potency": "inactive"},
      {"compound": "CCN(CC)c1ccc(C=NCCc2ccc(S(N)(=O)=O)cc2)cc1", "Potency": "active: 0.126 µM"},
      {"compound": "Nc1ncnc2c([C@@H]3O[C@@H](CO)[C@H](O)[C@@H]3O)nsc12", "activity, negative = inhibition": "inactive: -12.5% [at 13.5 µM]"},
      {"compound": "NC(=O)c1ccsc1NC(=O)COC(=O)c1ccccc1NCc1ccco1", "Potency": "inconclusive [inhibitor, partial curve]"},
      {"compound": "COc1ccc(N2CCn3c2nc2c3c(=O)n(CCCc3ccccc3)c(=O)n2C)c(OC)c1", "Potency": "active: 20 µM"},
      {"compound": "CCc1cc(=O)[nH]c(SCCC(F)=C(F)F)n1", "Potency": "inconclusive [inhibitor, single point]"},
      {"compound": "CCCOc1c(Br)cc(C2C3=C(CCCC3=O)N(C)C3=C2C(=O)CCC3)cc1OC", "Potency": "inconclusive [inhibitor, partial curve]"},
      {"compound": "O=C(NC(=S)Nc1cccc2ncccc12)c1cccs1", "Potency": "inconclusive [inhibitor, single point]"},
      {"compound": "CCCn1c(SCC(=O)Nc2c(C)cccc2C)nnc1C(C)C", "Potency": "inactive"},
      {"compound": "O=c1c2ccccc2c(-c2ccc(Cl)cc2)nn1-c1ccccc1", "Potency": "inactive"},
      {"compound": "Cc1ccc(NCCC(=O)c2cccs2)cc1", "Potency": "active: 0.891 µM"},
      {"compound": "CCOC(=O)C(=CNc1ccc(NC2=NCC(C)S2)cc1)C(=O)OCC", "note": "(stereo not given)", "Potency": "inactive"},
      {"compound": "CCOc1ccccc1Nc1nnc(Cc2ccccc2Cl)c(=O)[nH]1", "Potency": "inconclusive [inhibitor, single point]"},
      {"compound": "CN(C)c1ccc(-c2ccc3ncnc(N(C)Cc4ccco4)c3c2)cc1", "Potency": "inconclusive [inhibitor, partial curve]"},
      {"compound": "CN(C)CCOc1ccccc1Cc1ccccc1", "Potency": "inactive"},
      {"compound": "CC(=O)Nc1ccc2nc(SCC(=O)NCCOc3ccccc3)sc2c1", "Potency": "inactive"},
      {"compound": "CN1CCC(n2[nH]c(-c3ccccc3)c(Cc3ccccc3)c2=O)CC1", "activity, negative = inhibition": "inactive: 2.06% [at 13.5 µM]"},
      {"compound": "COc1ccccc1CN1CC[C@@]2(CCCN(C(=O)c3cc(C(F)(F)F)cc(C(F)(F)F)c3)C2)C1", "Potency": "inconclusive [inhibitor, single point]"},
      {"compound": "CCn1c(=O)c2cc(C(=O)NCc3cccs3)sc2c2ccccc21", "Potency": "inconclusive [inhibitor, partial curve]"},
      {"compound": "CC(=O)Nc1ccc(S(=O)(=O)Nc2cc([N+](=O)[O-])ccc2C)cc1", "Potency": "inactive"},
      {"compound": "CC1=C(C(=O)N2CCOCC2)C(c2ccccc2F)C2=C(CC(C)(C)CC2=O)N1", "note": "(stereo not given)", "Potency": "inconclusive [inhibitor, partial curve]"},
      {"compound": "Cc1ccc(C(=O)Nc2sc3c(c2C(=O)NCc2ccco2)CCCC3)cc1", "Potency": "inconclusive [inhibitor, partial curve]"},
      {"compound": "CC1/C(=C\\c2ccc(Cl)cc2)C(=O)C2CC1C2(C)C", "note": "(stereo not given)", "Potency": "inconclusive [inhibitor, single point]"},
      {"compound": "CCOC(=O)C1CCCN(Cc2ccccc2F)C1", "note": "(stereo not given)", "Potency": "active: 11.2 µM"},
      {"compound": "COc1ccc(S(=O)(=O)N2CCCC2)c(Cl)c1Cl", "Potency": "inconclusive [inhibitor, partial curve]"},
      {"compound": "O=C1C=C(O)CC(c2ccco2)C1", "note": "(stereo not given)", "Potency": "inactive"},
      {"compound": "Cc1cc(CN(C)C(=O)CC2C(=O)NCCN2Cc2ccc(F)c(F)c2)on1", "note": "(stereo not given)", "Potency": "inconclusive [inhibitor, single point]"},
      {"compound": "O=C1CN(S(=O)(=O)c2ccccc2)c2ccccc2N1", "Potency": "inconclusive [inhibitor, single point]"},
      {"compound": "O=C(NCCc1ccccc1)C(=O)NCC1OCCN1S(=O)(=O)c1ccc([N+](=O)[O-])cc1", "note": "(stereo not given)", "Potency": "inconclusive [inhibitor, partial curve]"},
      {"compound": "O=C(NCc1ccc2c(c1)OCO2)c1ccc(Cl)c(S(=O)(=O)NCc2ccccc2)c1", "Potency": "inconclusive [inhibitor, partial curve]"},
      {"compound": "Cc1c(C#N)c(=O)oc2ccc3ccccc3c12", "Potency": "inconclusive [inhibitor, partial curve]"},
      {"compound": "O=C(CSc1nnc(-c2ccncc2)n1-c1ccc(F)cc1)NC(=O)NCc1ccco1", "Potency": "active: 25.1 µM"},
      {"compound": "Cc1ccc(C)c2[nH]c(=O)c(CCNC(=O)Cc3cccs3)cc12", "Potency": "inconclusive [inhibitor, single point]"},
      {"compound": "Cc1noc(C)c1COc1cccc(C(=O)OCCOc2ccc(F)cc2)c1", "Potency": "inactive"},
      {"compound": "NC(=O)c1nsc(C(=O)N(c2ccccc2)C(C(=O)NCC2CCCO2)c2cccs2)c1N", "note": "(stereo not given)", "Potency": "inconclusive [inhibitor, single point]"}
    ]}
  ]
}
